Test results published in the RNAGym collection of RNA variant scans (doi:10.1093/nar/gkz1192).
The source gives no read counts; variants with many changes may rest on few reads.

B1: CPEB3 Ribozyme (parent)
chain: UAACAGGGGGCCACAGCAGAAGCGUUCACGUCGCAGCCCCUGUCAGAUUCUGGUGAAUCUGCGAAUUCUGCUGUAUAUCUC

Variants of: B1
Assay: self-cleavage, relative activity (ratio to wild type); higher = more cleavage; in vitro, sequencing
Outline: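 Relative activity was defined as the cleaved/total read fraction for a variant divided by the same fraction for the unmutated ribozyme. CPEB3 self-cleaving ribozyme libraries were made by rounds of error-prone PCR, barcoded, and transcribed in vitro with T7 RNA polymerase for 5 hours at 37°C, and cleavage ran through transcription plus a 15 min DNase I step before EDTA. Illumina sequencing of template-switched reverse transcripts gave the reads, and DNA sequencing mapped the barcodes. Averages come from three batches, using variants with at least 5 reads.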

Variant	self-cleavage
U51C U58G A64G	0.19
U51C U66C U76C	0.58
U51C G61A U66C	0.44
U51C A64G U66C U72C	0.41
U54C A56U U67C	0.22
A57G U67C U72C	0.46
U51A U58C U60C	0.31
G52U U72C G73A U78C	1.24
A56U U60G U66C A77G	0.17
U54C U67C C81A	0.25
U51A A57G U74A A77G	0.77
A56U U60C U76C	0.37
A56U U60C U76A	0.15
U58A C68A G73A	0.23
U54G A64U U76G	0.19
A57U A64U A65C	0.1
A56U A64U U67C U69C	0.24
U54C C68U U74A	0.98
U51C A56G G70A U80C	0.66
A56G C71A U78C U80G	0.3
U51C U66A U67A U80C	0.55
A56U U69C U78C	0.29
U54G U60A C62U	0.09
U51A U60C C62G U72C A75G	0.48

Variant	self-cleavage
U54A A56G U66C	0.12
A56G U60C U78C	0.42
A56G A57G U69C	0.37
U51C U54G A65G	0.15
A57G U58A A64G U76A	0.2
U51A U74C A75G	1.38
U54C U66C C71A	0.35
G53A A65G U72C	0.49
A57G A64U U76C	0.38
A57G C71A U74C	0.3
U54A U74G A75U	1.21
A56U U67C U72C U78A	0.32
G55U U76C A77G	1.03
U51G U54A U72A	0.94
U51C A64U G70C	0.09
G55U G73C A77G	1.19
U58A A65G U80C	0.14
A57G U60C U76C	0.48
A57C U66C A75G	0.08
U51C A77G U80C	1.02
U54A C71A U78C	0.32
U58C A64G U67C	0.31
U54C A64G U76C	0.93
U51C G52A G55C G63A G70C	0.3

Variant	self-cleavage
A56G U60C G61U U76A	0.15
G55U A57U C62U A65G	0.12
U51A U69A U76C	0.83
U54C U76A U80C	1.22
U54C U67A U69A U72C	0.19
A56G U60C U74A A77U	0.9
U51A U58C A64U U78C	0.25
U54C A65G U67C C81A	0.23
A56U U74C U76C	1.22
G53C A57G C68U	0.87
G53A U76A A77G	1.16
U54A A64G U69C	0.65
G55C A64G C68A	0.14
A56G A77G U80C	0.7
A57G G63A A64C U76C U80C	0.32
U54C U60C U69A A75U	0.41
U54C U60A U69C	0.25
G53A C62A C71U	0.47
G55C G61A U76C	0.17
U54A G63A U72C	1.15
U51C A75G U76A	0.99
A57G A64U A77G	0.23
U54C A57C U74A	0.44
A56G U58C C59U	0.15

Variant	self-cleavage
U51A U58A U74G U76C	0.45
A56G U66C G70A U72A	0.32
U54C A64G A65G U72A	0.45
A57G A64G U74C	1.19
A56G U66A U67C	0.16
G52C A64G U76A	0.87
U54A U60C U72C	0.75
U54C A56G U58C U78C	0.16
U54C G55A U80A	1
A56G A64G U72A	0.47
A57G A65G U69C A77U	0.34
A56G U58C U66C U78C	0.23
A56U C79U U80C	0.72
G52U U54G A65G U67C	0.2
U54G A57G U66A	0.19
G53A U74C U78C U80C	0.83
G55U U74C A75G	1.07
U51G A57C C71G C81A	0.21
U51G A56G U72A	0.49
A57G U67C A75U U80A	0.44
A56G U60A U74C	0.94
U54G U60C U66C	0.24
A56G A64G U76A	0.94
A56G A64G U76C	0.94

Variant	self-cleavage
A57G U74C U80A	1.27
G52U A64G U74C	1.13
A56G A57G A64U U72C C79U	0.22
A57G U69A A77U	0.49
G52U A64G U80A	0.97
A56U U60A C62U A64G	0.12
A57G A64G U80A	0.65
A57G U60A G63A U76C	0.23
U51A U58C U67C U69C	0.44
A56G U69A U78C	0.43
U51C A56G U76A	0.83
U51C A56G U76C	1.03
U51C A65U U66C	0.21
U54C A56G G63A C71U	0.61
U51A C68U U72C	0.88
U51A C68U U72G	0.94
U51A A57G U72A U80C	0.74
U51C A57G U78A U80C	0.93
A56G U69A U72C G73A	0.3
U51C U60C A64G U69C A77G	0.24
U51C C59A U72C	0.22
U58A A77G U80C	0.38
U58A A64U U67C U69C	0.52
U51A A57G U72C	0.98

Variant	self-cleavage
U54A C62A U67C U72A	0.82
U54A A56U A64G	0.51
U51A G63C A64U U80A	0.15
U51C G53A A56G U69C U78C	0.85
U54C U60G U72C	0.33
A56U G63A U69C U80C	0.39
A56U U60C U67C	0.26
A57U U58A A64G U67A	0.15
A57C U72A U74A	0.41
A56C U67A C71G	0.13
U54A A57G G63A U78C	0.86
U54C U69C G73A A77G	1.07
U54C C71A U72C	0.27
A57G G70C U80A	0.38
A56G U67C U78A	0.17
U51A U69C U74A	0.52
A57G U72C U76C	0.65
A57G U69A U80A	0.14
U51C U58A U72C	0.24
U54C U58C U60C A65G U72C U78A	0.34
U54C U69C U80C	0.29
U51C A57G A65U	0.25
A56U U74A A75U	1.18
U58C A64U U76C	0.14

Variant	self-cleavage
U51C G53A A75G	0.95
A56G U58C U80C	0.35
U54C U66C U78C	0.21
G52U G73A U76C	1.29
U51C A64U A77G	0.38
U54C G63U U80A	0.71
A56U A65G U78G	0.22
U51A U54C A57U	0.52
U51A C68A U69A	0.6
U51C A65G U69A U76C	0.43
G52C A64G G70A	0.49
A56G A57U U74C	0.43
U54C C59A A65G U80A	0.2
U54C C62U A77G	0.56
U54C A56G U67C	0.28
A57G U69G U80A	0.75
A56G U58C U69A	0.3
A57G U60A U67C	0.14
A56G U60A U78C	0.43
G55C U60C G73C	0.31
U54A C71G C79A	0.72
U51C U58C A64G U78C	0.12
U54A U60C C71U U72C	0.41
